Experimental data from PubChem BioAssay (NCI).
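Exposure lasted 48 hours, with cells grown in 96-well plates and compounds tested at five concentrations. GI50 is the concentration that inhibits growth by half. TGI: total growth inhibition.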

Tested on: NCI-H322M lung
Test: NCI anticancer screen, dose series, 48 h

SMILES | GI50 | TGI
O=C(CSc1nnc(-c2ccc(Cl)cc2)n1-c1ccccc1)Nc1ccc(Cl)cc1 | 3.58 µM | > 100 µM
CCOC(=O)c1c(NC(=O)c2cccc(C(F)(F)F)c2)sc2c3c(ccc12)OCN(C)C3 | 1.69 µM | 3.09 µM
